Assay results: the supplement of paper PMC8728848
The other results are listed elsewhere or left out.

Legend:
Assay in all cases: glycan array binding signal (z-score within array); higher = stronger binding
Conditions in all cases: glycan notation: IUPAC condensed, linker removed
[1] = molecular target: Fuc(a1-2)[Gal(a1-3)]Gal(b1-4)GlcNAc(b1-2)Man(a1-3)[Fuc(a1-2)[Gal(a1-3)]Gal(b1-4)GlcNAc(b1-2)Man(a1-6)]Man(b1-4)GlcNAc(b1-4)[Fuc(a1-6)]GlcNAc
Procedure, shortened: (§1)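 Arrays were curated from the Consortium for Functional Glycomics database, 3228 in total, and kept only where the protein sequence was available. Binding is expressed as a within-array Z-score. This score was averaged across arrays of the same protein sequence at different concentrations or buffers and across linkers, and negative values can be read as non-binding.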

[2] = molecular target: Fuc(a1-2)[Gal(a1-3)]Gal(b1-4)GlcNAc(b1-3)GalNAc
Procedure, shortened: as §1

[3] = molecular target: Fuc(a1-2)[Gal(a1-3)]Gal(b1-4)GlcNAc(b1-3)[Fuc(a1-2)[Gal(a1-3)]Gal(b1-4)GlcNAc(b1-6)]GalNAc
Procedure, shortened: as §1

[4] = molecular target: Fuc(a1-2)[Gal(a1-3)]Gal(b1-4)GlcNAc(b1-6)GalNAc
Procedure, shortened: as §1

[5] = molecular target: Fuc(a1-2)[Gal(a1-3)]Gal(b1-4)[Fuc(a1-3)]Glc
Procedure, shortened: as §1

[6] = molecular target: Fuc(a1-2)[Gal(a1-3)]Gal(b1-4)[Fuc(a1-3)]GlcNAc
Procedure, shortened: as §1

[7] = molecular target: Fuc(a1-2)[Gal(a1-3)]Gal(b1-4)[Fuc(a1-3)]GlcNAc(b1-3)GalNAc
Procedure, shortened: as §1

[8] = molecular target: Fuc(a1-2)[Gal(a1-4)]Gal(b1-4)GlcNAc
Procedure, shortened: as §1

[9] = molecular target: Fuc(a1-2)[GalNAc(a1-3)]Gal
Procedure, shortened: as §1

[10] = molecular target: Fuc(a1-2)[GalNAc(a1-3)]Gal(b1-3)GalNAc(a1-3)[Fuc(a1-2)]Gal(b1-4)GlcNAc
Procedure, shortened: as §1

[11] = molecular target: Fuc(a1-2)[GalNAc(a1-3)]Gal(b1-3)GalNAc(b1-3)Gal(a1-4)Gal(b1-4)Glc
Procedure, shortened: as §1

[12] = molecular target: Fuc(a1-2)[GalNAc(a1-3)]Gal(b1-3)GlcNAc
Procedure, shortened: as §1

[13] = molecular target: Fuc(a1-2)[GalNAc(a1-3)]Gal(b1-3)GlcNAc(b1-2)Man(a1-3)[Fuc(a1-2)[GalNAc(a1-3)]Gal(b1-3)GlcNAc(b1-2)Man(a1-6)]Man(b1-4)GlcNAc(b1-4)GlcNAc
Procedure, shortened: as §1

[14] = molecular target: Fuc(a1-2)[GalNAc(a1-3)]Gal(b1-3)GlcNAc(b1-2)Man(a1-3)[Fuc(a1-2)[GalNAc(a1-3)]Gal(b1-3)GlcNAc(b1-2)Man(a1-6)]Man(b1-4)GlcNAc(b1-4)[Fuc(a1-6)]GlcNAc
Procedure, shortened: as §1

[15] = molecular target: Fuc(a1-2)[GalNAc(a1-3)]Gal(b1-3)GlcNAc(b1-3)GalNAc
Procedure, shortened: as §1

[16] = molecular target: Fuc(a1-2)[GalNAc(a1-3)]Gal(b1-3)GlcNAc(b1-6)GalNAc
Procedure, shortened: as §1

[17] = molecular target: Fuc(a1-2)[GalNAc(a1-3)]Gal(b1-4)Glc
Procedure, shortened: as §1

[18] = molecular target: Fuc(a1-2)[GalNAc(a1-3)]Gal(b1-4)GlcNAc
Procedure, shortened: as §1

[19] = molecular target: Fuc(a1-2)[GalNAc(a1-3)]Gal(b1-4)GlcNAc(b1-2)Man
Procedure, shortened: as §1

[20] = molecular target: Fuc(a1-2)[GalNAc(a1-3)]Gal(b1-4)GlcNAc(b1-2)Man(a1-3)[Fuc(a1-2)[GalNAc(a1-3)]Gal(b1-4)GlcNAc(b1-2)Man(a1-6)]Man(b1-4)GlcNAc(b1-4)GlcNAc
Procedure, shortened: as §1

[21] = molecular target: Fuc(a1-2)[GalNAc(a1-3)]Gal(b1-4)GlcNAc(b1-2)Man(a1-3)[Fuc(a1-2)[GalNAc(a1-3)]Gal(b1-4)GlcNAc(b1-2)Man(a1-6)]Man(b1-4)GlcNAc(b1-4)[Fuc(a1-6)]GlcNAc
Procedure, shortened: as §1

[22] = molecular target: Fuc(a1-2)[GalNAc(a1-3)]Gal(b1-4)GlcNAc(b1-3)Gal(b1-4)GlcNAc
Procedure, shortened: as §1

[23] = molecular target: Fuc(a1-2)[GalNAc(a1-3)]Gal(b1-4)GlcNAc(b1-3)Gal(b1-4)GlcNAc(b1-3)Gal(b1-4)GlcNAc
Procedure, shortened: as §1

[24] = molecular target: Fuc(a1-2)[GalNAc(a1-3)]Gal(b1-4)GlcNAc(b1-3)GalNAc
Procedure, shortened: as §1

[25] = molecular target: Fuc(a1-2)[GalNAc(a1-3)]Gal(b1-4)GlcNAc(b1-3)[Fuc(a1-2)[GalNAc(a1-3)]Gal(b1-4)GlcNAc(b1-6)]GalNAc
Procedure, shortened: as §1

[26] = molecular target: Fuc(a1-2)[GalNAc(a1-3)]Gal(b1-4)GlcNAc(b1-6)GalNAc
Procedure, shortened: as §1

[27] = molecular target: Fuc(a1-2)[GalNAc(a1-3)]Gal(b1-4)[Fuc(a1-3)]GlcNAc
Procedure, shortened: as §1

[28] = molecular target: Fuc(a1-2)[GalNAc(a1-3)]Gal(b1-4)[Fuc(a1-3)]GlcNAc(b1-3)GalNAc
Procedure, shortened: as §1

[29] = molecular target: Fuc(a1-2)[GalNAc(a1-4)]Gal(b1-4)GlcNAc
Procedure, shortened: as §1

[30] = molecular target: Fuc(a1-2)[GalNAc(b1-3)]Gal
Procedure, shortened: as §1

[31] = molecular target: Fuc(a1-3)GlcNAc
Procedure, shortened: as §1

[32] = molecular target: Fuc(a1-3)[Gal(b1-4)]Glc6S
Procedure, shortened: as §1

[33] = molecular target: Fuc(a1-3)[Gal(b1-4)]GlcNAc
Procedure, shortened: as §1

[34] = molecular target: Fuc(a1-3)[Gal(b1-4)]GlcNAc(b1-2)Man
Procedure, shortened: as §1

[35] = molecular target: Fuc(a1-3)[Gal(b1-4)]GlcNAc(b1-2)Man(a1-3)[Fuc(a1-3)[Gal(b1-4)]GlcNAc(b1-2)Man(a1-6)]Man(b1-4)GlcNAc(b1-4)GlcNAc
Procedure, shortened: as §1

[36] = molecular target: Fuc(a1-3)[Gal(b1-4)]GlcNAc(b1-2)Man(a1-3)[Fuc(a1-3)[Gal(b1-4)]GlcNAc(b1-2)Man(a1-6)]Man(b1-4)GlcNAc(b1-4)[Fuc(a1-6)]GlcNAc
Procedure, shortened: as §1

[37] = molecular target: Fuc(a1-3)[Gal(b1-4)]GlcNAc(b1-3)Gal(b1-3)[Fuc(a1-4)]GlcNAc
Procedure, shortened: as §1

B1: Cohesin-hDCIR (Homo sapiens) (protein)
chain: LDDLDAVRIKVDTVNAKPGDTVRIPVRFSGIPSKGIANCDFVYSYDPNVLEIIEIEPGDIIVDPNPDKSFDTAVYPDRKIIVFLFAEDSGTGAYAITKDGVFATIVAKVKEGAPNGLSVIKFVEVGGFANNDLVEQKTQFFDGGANVGDTTEPATPTTPVTTPTTTDDLDAASQKYSQLLEKKTTKELVHTTLECVKKNMPVEETAWSCCPKNWKSFSSNCYFISTESASWQDSEKDCARMEAHLLVINTQEEQDFIFQNLQEESAYFVGLSDPEGQRHWQWVDQTPYNESSTFWHPREPSDPNERCVVLNFRKSPKRWGWNDVNCLGPQRSVCEMMKIHLHHHHHH
glycan array binding signal (z-score) [1]: -0.393
glycan array binding signal (z-score) [2]: -0.635
glycan array binding signal (z-score) [3]: -0.287
glycan array binding signal (z-score) [4]: -0.51
glycan array binding signal (z-score) [5]: -0.659
glycan array binding signal (z-score) [6]: -0.182
glycan array binding signal (z-score) [7]: 0.387
glycan array binding signal (z-score) [8]: 0.014
glycan array binding signal (z-score) [9]: -0.44
glycan array binding signal (z-score) [10]: -0.185
glycan array binding signal (z-score) [11]: -0.235
glycan array binding signal (z-score) [12]: -0.219
glycan array binding signal (z-score) [13]: 0.23
glycan array binding signal (z-score) [14]: -0.571
glycan array binding signal (z-score) [15]: 0.406
glycan array binding signal (z-score) [16]: 2.04
glycan array binding signal (z-score) [17]: -0.644
glycan array binding signal (z-score) [18]: -0.4
glycan array binding signal (z-score) [19]: -0.056
glycan array binding signal (z-score) [20]: -0.364
glycan array binding signal (z-score) [21]: -0.345
glycan array binding signal (z-score) [22]: -0.461
glycan array binding signal (z-score) [23]: -0.397
glycan array binding signal (z-score) [24]: -0.401
glycan array binding signal (z-score) [25]: -0.14
glycan array binding signal (z-score) [26]: 5.33
glycan array binding signal (z-score) [27]: -0.198
glycan array binding signal (z-score) [28]: 0.349
glycan array binding signal (z-score) [29]: 1.42
glycan array binding signal (z-score) [30]: 3.31
glycan array binding signal (z-score) [31]: -0.066
glycan array binding signal (z-score) [32]: -0.026
glycan array binding signal (z-score) [33]: 0.016
glycan array binding signal (z-score) [34]: -0.432
glycan array binding signal (z-score) [35]: -0.176
glycan array binding signal (z-score) [36]: -0.623
glycan array binding signal (z-score) [37]: -0.547
